# Residue numbers refer to the chain shown, from its start. This is one part of the list.
# T1: RBFOX1 RRM (Homo sapiens, UniProt Q9NWB1 109-208)
# T1 sequence: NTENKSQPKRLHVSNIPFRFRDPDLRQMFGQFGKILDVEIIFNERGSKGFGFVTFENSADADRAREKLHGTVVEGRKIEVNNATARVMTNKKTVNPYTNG
# B1: UCAUUUA (DNA:RNA)
# RNA: GGGAGACCGGAAUUCAGAUUGUCCUCAUUUAUUAAAUCCCGUCGUAGCCACCA
# DNA 1: CAATCTGAATTCCGGTCTCCC
# DNA 2: TGGTGGCTACGACGGGATT
# B2: GCCCCCG (DNA:RNA)
# RNA: B1 RNA with U25G, A27C, U28C, U29C, U30C, A31G
# DNA 1: CAATCTGAATTCCGGTCTCCC
# DNA 2: TGGTGGCTACGACGGGATT
# B3: GGCCUAU (DNA:RNA)
# RNA: B1 RNA with U25G, C26G, A27C, U28C, U30A, A31U
# DNA 1: CAATCTGAATTCCGGTCTCCC
# DNA 2: TGGTGGCTACGACGGGATT
# B4: AUAAACA (DNA:RNA)
# RNA: B1 RNA with U25A, C26U, U28A, U29A, U30C
# DNA 1: CAATCTGAATTCCGGTCTCCC
# DNA 2: TGGTGGCTACGACGGGATT
# B5: UACUAAG (DNA:RNA)
# RNA: B1 RNA with C26A, A27C, U29A, U30A, A31G
# DNA 1: CAATCTGAATTCCGGTCTCCC
# DNA 2: TGGTGGCTACGACGGGATT
# B6: UAAGAUA (DNA:RNA)
# RNA: B1 RNA with C26A, U28G, U29A
# DNA 1: CAATCTGAATTCCGGTCTCCC
# DNA 2: TGGTGGCTACGACGGGATT
# B7: ACCAUUG (DNA:RNA)
# RNA: B1 RNA with U25A, A27C, U28A, A31G
# DNA 1: CAATCTGAATTCCGGTCTCCC
# DNA 2: TGGTGGCTACGACGGGATT
# B8: AAGCCUA (DNA:RNA)
# RNA: B1 RNA with U25A, C26A, A27G, U28C, U29C
# DNA 1: CAATCTGAATTCCGGTCTCCC
# DNA 2: TGGTGGCTACGACGGGATT
# B9: GAAGUAU (DNA:RNA)
# RNA: B1 RNA with U25G, C26A, U28G, U30A, A31U
# DNA 1: CAATCTGAATTCCGGTCTCCC
# DNA 2: TGGTGGCTACGACGGGATT
# B10: CUAGCCA (DNA:RNA)
# RNA: B1 RNA with U25C, C26U, U28G, U29C, U30C
# DNA 1: CAATCTGAATTCCGGTCTCCC
# DNA 2: TGGTGGCTACGACGGGATT
# B11: AUUUGCU (DNA:RNA)
# RNA: B1 RNA with U25A, C26U, A27U, U29G, U30C, A31U
# DNA 1: CAATCTGAATTCCGGTCTCCC
# DNA 2: TGGTGGCTACGACGGGATT
# B12: GCAGUGC (DNA:RNA)
# RNA: B1 RNA with U25G, U28G, U30G, A31C
# DNA 1: CAATCTGAATTCCGGTCTCCC
# DNA 2: TGGTGGCTACGACGGGATT
# B13: GACCGCA (DNA:RNA)
# RNA: B1 RNA with U25G, C26A, A27C, U28C, U29G, U30C
# DNA 1: CAATCTGAATTCCGGTCTCCC
# DNA 2: TGGTGGCTACGACGGGATT
# B14: CCUGUAC (DNA:RNA)
# RNA: B1 RNA with U25C, A27U, U28G, U30A, A31C
# DNA 1: CAATCTGAATTCCGGTCTCCC
# DNA 2: TGGTGGCTACGACGGGATT
# B15: UGGUAGC (DNA:RNA)
# RNA: B1 RNA with C26G, A27G, U29A, U30G, A31C
# DNA 1: CAATCTGAATTCCGGTCTCCC
# DNA 2: TGGTGGCTACGACGGGATT
# B16: CGAUCGU (DNA:RNA)
# RNA: B1 RNA with U25C, C26G, U29C, U30G, A31U
# DNA 1: CAATCTGAATTCCGGTCTCCC
# DNA 2: TGGTGGCTACGACGGGATT
# B17: CUAGACG (DNA:RNA)
# RNA: B1 RNA with U25C, C26U, U28G, U29A, U30C, A31G
# DNA 1: CAATCTGAATTCCGGTCTCCC
# DNA 2: TGGTGGCTACGACGGGATT
# B18: UUAUAUU (DNA:RNA)
# RNA: B1 RNA with C26U, U29A, A31U
# DNA 1: CAATCTGAATTCCGGTCTCCC
# DNA 2: TGGTGGCTACGACGGGATT
# B19: AAUGGGC (DNA:RNA)
# RNA: GGGAGACCGGAAUUCAGAUUGUCCAAUGGGCUUAAAUCCCGUCGUAGCCACCA
# DNA 1: CAATCTGAATTCCGGTCTCCC
# DNA 2: TGGTGGCTACGACGGGATT
# B20: UGUCACC (DNA:RNA)
# RNA: B19 RNA with A25U, A26G, G28C, G29A, G30C
# DNA 1: CAATCTGAATTCCGGTCTCCC
# DNA 2: TGGTGGCTACGACGGGATT
# Molecular target: T1, RBFOX1 RRM
# Experiment: EMSA; HiTS-Eq, 1 nM pool, 10 min; buffer printed only for the single-RNA assays: 10 mM Tris pH 7.5, 150 mM NaCl, 3.4 mM EDTA, 0.001% NP-40, 30 C
# Settings: tags: His6 N-terminal (pET28a); label: 5' 32P
# Outline: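 Purified wild-type or mutant RbFox RRM at increasing concentrations was equilibrated with 1 nM of 5′-radiolabelled RNA carrying 7 randomized nucleotides for 10 min in 50 µL. Unbound RNA was separated by 8% native PAGE and sequenced. Relative association constants came from read-count changes of each RNA species compared with the control reaction, normalised to the cognate motif.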
row,Binder,binding signal
1,B1,0.00106 KA relative to UGCAUGU
2,B2,0.0144 KA relative to UGCAUGU
3,B3,0.00391 KA relative to UGCAUGU
4,B4,0.00193 KA relative to UGCAUGU
5,B5,0.0139 KA relative to UGCAUGU
6,B6,0.00922 KA relative to UGCAUGU
7,B7,0.00628 KA relative to UGCAUGU
8,B8,0.000665 KA relative to UGCAUGU
9,B9,0.00636 KA relative to UGCAUGU
10,B10,0.00555 KA relative to UGCAUGU
11,B11,0.014 KA relative to UGCAUGU
12,B12,0.0169 KA relative to UGCAUGU
13,B13,0.0106 KA relative to UGCAUGU
14,B14,0.00765 KA relative to UGCAUGU
15,B15,0.0193 KA relative to UGCAUGU
16,B16,0.0178 KA relative to UGCAUGU
17,B17,0.0055 KA relative to UGCAUGU
18,B18,0.00153 KA relative to UGCAUGU
19,B19,0.0114 KA relative to UGCAUGU
20,B20,0.0116 KA relative to UGCAUGU
